Measured values published in the supplement of paper PMC3334620.
The full ranking holds about 33,000 sequences; the median of “E-score (-0.5 to 0.5)” is about -0.021, and the highest 2% start at about 0.32. The list shows a part of the results.

biological target: T1, Zap1 (UniProt P47043); assay: PBM E-score (8-mer binding enrichment) (E-score (-0.5 to 0.5)); higher = stronger / more preferred TF binding; most listed sequences are background and not binding sites; settings: protein concentration: 200 nM; construct: GST-full length
T1 sequence: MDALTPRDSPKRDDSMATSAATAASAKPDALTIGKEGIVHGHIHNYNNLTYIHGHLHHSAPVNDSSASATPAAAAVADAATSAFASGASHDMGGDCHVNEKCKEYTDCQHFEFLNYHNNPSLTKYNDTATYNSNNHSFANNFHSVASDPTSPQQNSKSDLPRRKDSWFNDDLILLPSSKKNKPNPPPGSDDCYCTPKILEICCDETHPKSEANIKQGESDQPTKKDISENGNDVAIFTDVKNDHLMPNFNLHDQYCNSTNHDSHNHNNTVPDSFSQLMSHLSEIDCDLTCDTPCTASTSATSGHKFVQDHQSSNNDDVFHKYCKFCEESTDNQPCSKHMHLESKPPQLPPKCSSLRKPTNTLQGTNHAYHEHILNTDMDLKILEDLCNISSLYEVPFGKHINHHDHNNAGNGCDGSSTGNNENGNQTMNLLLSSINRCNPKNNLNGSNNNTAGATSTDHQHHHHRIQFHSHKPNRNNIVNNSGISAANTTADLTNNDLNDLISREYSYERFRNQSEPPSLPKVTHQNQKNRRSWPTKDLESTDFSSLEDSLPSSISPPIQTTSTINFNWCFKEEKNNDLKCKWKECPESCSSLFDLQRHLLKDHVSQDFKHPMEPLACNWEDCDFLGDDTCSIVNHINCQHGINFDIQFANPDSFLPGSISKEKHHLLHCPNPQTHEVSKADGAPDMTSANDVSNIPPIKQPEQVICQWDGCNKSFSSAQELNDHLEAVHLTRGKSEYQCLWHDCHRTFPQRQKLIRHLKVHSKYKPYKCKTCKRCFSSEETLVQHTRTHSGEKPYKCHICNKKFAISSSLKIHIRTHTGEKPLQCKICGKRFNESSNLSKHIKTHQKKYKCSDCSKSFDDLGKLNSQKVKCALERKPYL
Procedure, shortened: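 Bound GST-tagged yeast transcription factors, applied at about 100-200 nM to double-stranded universal all-10-mer Agilent arrays, were detected with fluorescent anti-GST. Scans were normalised with masliner. A modified Wilcoxon-Mann-Whitney statistic, the E-score, was assigned to each ungapped eight-base word pooled with its reverse complement by the Universal PBM Analysis Suite.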

Sequence | PBM E-score
ACCATAGG | 0.212
CGAAGTCG | 0.0486
GAGTTAGA | -0.133
AATAAAAA | 0.172
GATGGTAA | 0.171
GACAGAGA | -0.085
CGACGTCG | -0.103
GATTATCA | -0.0633
AGTTGGCG | -0.202
AGGTAGCA | 0.123
ACATGCTA | -0.226
CGAAGCCG | -0.168
AGAGTCAA | -0.102
AGCAATAT | 0.0713
GGTAATAA | 0.338
CTAATTAC | 0.0995
ATGTACGG | -0.0798
CTTGTGGA | 0.115
CATGGGAA | -0.0139
AAGGAGAC | -0.286
CGCGTTTA | -0.0657
ACTAAAGG | 0.275
ATTCACAA | 0.254
CCCCTTCC | -0.055
CGCACGCG | -0.166

Sequence | PBM E-score
GAATGGGC | -0.098
CAGAGCAC | -0.127
GGGGGCAC | -0.149
GATCTGGC | -0.121
ATCGGTGG | 0.0296
ATCCGATG | -0.0642
ACCCATCA | 0.228
AGGGCCCA | -0.127
AACTGGCT | -0.31
CGAAGGCC | -0.133
AGAGCGGG | -0.0654
AATAAATC | -0.103
CCTAATCC | -0.00347
AAAAGGCG | -0.138
GATAAGGC | -0.231
GAGTTGAA | -0.134
GTCCCCTA | 0.12
CTTCCCGC | -0.208
CATACGAA | 0.107
AGTGAACT | -0.00558
GGTTTGAC | 0.0472
CGTAGAAG | -0.141
ATACGTGG | -0.199
TAAATCCA | -0.0221
CTTCATTC | -0.104

Sequence | PBM E-score
ACTACGAC | -0.0282
ATATCTGG | -0.138
CTCCGCAG | -0.0403
CTCGCTCA | 0.0112
GCATATAA | 0.0856
CTGCCTTA | -0.356
ATCGGATA | 0.103
CACATTGC | -0.0466
CACCCTAC | 0.328
CTGGCGCC | -0.227
CGTGATCC | -0.14
CTGAGCTC | -0.0991
CCCTAAAG | 0.247
CGGGGAGA | -0.204
TACCAGGA | 0.206
AACCTCAG | 0.205
AAGCAAGG | 0.141
ATGTAGCA | -0.244
TAAAGTCA | 0.0993
CAAAAGAC | 0.0415
AGAATCGG | -0.111
CAAGGCCC | -0.113
TTAGTGAA | 0.0447
ACTATATG | -0.0676
GAGGATGC | -0.169

Sequence | PBM E-score
GATGCCCA | -0.107
CGCAAAAG | -0.105
TATTGCAA | 0.249
CGTACCTA | -0.117
AGGGGAAT | 0.004
GGAAGCAC | -0.125
CATATCCC | -0.0103
CGACTCAC | -0.178
CTTAGAGA | -0.0526
CTAGAGAA | 0.014
GCCTTTCC | -0.132
GCATATCA | -0.0474
AAACCAAT | 0.19
GCGTTAAA | 0.089
GGAAACCC | 0.293
GGGGAGAC | -0.235
AACGTATT | -0.139
AGCAGTAT | 0.0154
CAACATGA | 0.146
CAGCTAAA | 0.0244
CTTCACGC | -0.0117
CACAGTGC | -0.183
CTCCCGAA | -0.34
ATCCACTA | 0.0706
AAAATGCA | -0.0432

Sequence | PBM E-score
AACTCAGA | 0.157
CCTTTCCG | 0.122
AACGTGAT | -0.0982
CCATGGCG | 0.0904
CCGATTGA | 0.123
AGACGCCC | 0.0172
AAATTTTA | 0.121
GCGCCACA | -0.0206
CCAAAATC | 0.123
ATGTGCCA | -0.0682
CCTATCCC | 0.121
AATTACAG | 0.0745
CTTAAAGC | 0.0143
ATCCTGAG | -0.0542
CCACTGGA | -0.115
CCTCAACA | 0.0925
TCCCAACA | 0.0262
CGCTCAAG | -0.0493
CGAAGCAA | -0.00093
ACCCAGTC | -0.039
CACACTGC | -0.158
CAGTTCCA | 0.164
AGTCCTAT | -0.0607
GGACTTAA | -0.108
CGAACCAA | 0.183

Sequence | PBM E-score
AAAGTTCG | 0.105
AAAATCAC | 0.0718
CCCGCGAG | 0.0782
AAGGTGAA | 0.068
AGTCAAGA | -0.161
AACCGTAG | 0.0762
ATTTGCTA | 0.0307
AAAATTTT | 0.108
GTAGAAAC | 0.0301
CGAAAAAA | 0.237
ATCCCAGC | -0.131
CTTACCTC | 0.0904
ACGCTGCG | -0.199
CAAGGCCG | -0.00033
AAGTAGTC | -0.0936
CGCTGCAG | 0.0248
TCAGAGGA | -0.107
AGCCACTC | -0.23
GGCATAGA | -0.0663
GATGTTAC | -0.0218
CCGTTTCC | -0.101
CGTCCCTC | -0.171
AAGTGGCT | -0.0519
GCAGACTA | -0.222
CATGTTCG | 0.0797

Sequence | PBM E-score
TAACGTGA | -0.124
CCGAAAGC | -0.0793
GGGATGGA | -0.254
ATTGCATG | -0.0435
GCTTTGTA | 0.149
CCCTGCCC | -0.00322
CAAGCCGC | -0.19
AACGATCC | -0.159
AGTAAATG | 0.174
ACTTTGAG | 0.0948
ACGGTACA | 0.213
AATGGTCG | 0.0699
AAGGGGGT | -0.271
CAGTCCTC | -0.271
ATCCCGTC | -0.108
TCATGAGA | 0.0926
CATGACGA | 0.00891
CAAAGGAG | -0.175
GACGGCCA | 0.0006
AAACGTGT | -0.178
ATAAAGAG | -0.118
CACTGATG | -0.0195
